From PubChem BioAssay AID493208 (National Center for Advancing Translational Sciences (NCATS), 2011)
Among all 44,000 compounds or so, about 340 (0.77%) were called active. About 5% were inconclusive and are not listed. Calls come from the whole dose curve; as a rule, active = well fitted inhibition curve with a large enough effect; inconclusive = small, poorly fitted or top-dose-only effect; inactive = flat fitted curve, though single readings scatter. The list shows a part of the results.

assay: Acumen qHTS Assay for Inhibitors of the mTORC1 Signaling Pathway in MEF (Tsc2-/-, p53-/-) Cells: Sytravon; details: phospho-rpS6 immunofluorescence/PI, 24 h; series mostly up to 38.3 µM; activity change, negative = inhibition: at the top concentration;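 note: plate controls were DMSO for no effect and rapamycin for full effect; nearly all actives have a fitted effect of over 50% in size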
How it was run: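 Readout is phospho-S6 Alexa 488 signal normalized to PI per well, reported as % active cells with thresholds set from rapamycin (7.5 nM) and DMSO controls. Cells: Tsc2-/-, p53-/- MEFs, 24 hrs compound at 37 C; PI cell number serves as viability.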

Activity change, negative = inhibition, inactive:
COc1ccc(NC(=O)C(Cc2ccccc2)NS(=O)(=O)c2ccc3c(c2)oc(=O)n3C)c(OC)c1 (stereo not given) 1.17%
CC(C)c1ccc(NC(=O)Cn2nnc(C(=O)NCCc3ccccc3)c2N)cc1 2.15%
COc1cc(Cl)c(NC(=O)CN2C(=O)c3cccnc3Sc3ccccc32)c(OC)c1 5.2%
Cc1nn(-c2ccccc2)c(-n2cccc2)c1C(=O)NCCCN1CCN(c2ccccc2F)CC1 -2.03%
Cc1ccc(OCC(=O)OCc2cc(=O)n3ccsc3n2)cc1C 4.72%
Cc1nc2ccc(S(=O)(=O)NCC(=O)NCc3ccc(Cl)cc3)cc2s1 -1.13%
COc1ccccc1N1CCN(c2ncc3c(n2)CCN(Cc2ccccc2C)C3)CC1 10.2%
COc1ccc(OC(=O)c2cc(-c3ccc4c(c3)OCCO4)on2)cc1 -9.51%
CCOc1ccc(NC(=O)Cn2c(=O)nc(-c3ccccc3)c3ccccc32)cc1 4.37%
Cc1ccc(C)c(NC(=O)CSc2cn(CC(=O)N3CCCCC3)c3ccccc23)c1 -6.85%
Brc1ccc(-c2cn3cc(Cc4ccccc4)sc3n2)cc1 10.2%
CC1CCN(S(=O)(=O)c2ccc3[nH]ccc3c2)CC1 -8.96%
CCOC(=O)c1ccc(NC(=O)c2noc3c2CCCC3)cc1 -15.2%
Cn1cc(CCCC(=O)NCc2ccc(F)cc2)c2ccccc21 6.89%
O=C1NC(NS(=O)(=O)c2ccccc2)(C(F)(F)F)C(=O)N1CCc1ccccc1 (stereo not given) -7.69%
CCOc1ccc(-c2cc3nc(C4CCN(C(=O)OC(C)(C)C)CC4)c(C(=O)Nc4cccc(Cl)c4C)cn3n2)cc1 3.18%
O=C(CCC(=O)N1CCOc2ccccc21)NCc1cccs1 -0.895%
CCN(c1ccccc1)c1ncnc2c1cnn2-c1ccc(OC)cc1 -2.06%
Cc1ccc2[nH]c3c(=O)n(CC(=O)N4CCN(c5ccccc5F)CC4)ncc3c2c1 1.62%
CC(=O)N1CCCc2cc(S(=O)(=O)N3CCCC(C(=O)Nc4ccc(F)cc4F)C3)ccc21 (stereo not given) 0.925%
Cc1cc(N2CCN(C)CC2)nc2ccc(NC(=O)Nc3ccc(F)cc3)cc12 -2.04%
O=S(=O)(NCCc1nnc2ccc(SCc3cccc(Cl)c3)nn12)c1ccccc1 2.21%
COc1ccc(Cn2c(CNC(=O)Cc3ccc(OC)c(OC)c3)nc3cccnc32)cc1 -1.67%
O=C(Cn1c(=O)n(Cc2ccco2)c(=O)c2sc3ccccc3c21)Nc1ccc(F)cc1F 0.739%
COc1ccc(C(=O)N(Cc2ccco2)Cc2ccccc2F)cc1Cl -21%
COc1ccc(-c2cc(C(F)(F)F)c(C#N)c(SCC(=O)Nc3cccc(C)c3)n2)cc1 4.8%
O=C(NCC(c1ccco1)S(=O)(=O)c1ccc(Cl)cc1)c1ccc(C(F)(F)F)cc1 (stereo not given) -10.5%
Cc1ccc(Cn2c(SCc3ccc(C(=O)O)cc3)nc3cccnc32)cc1 0.955%
COc1cccc(CC(=O)Nc2c(C(=O)N3CCN(c4ccccc4)CC3)oc3ccccc23)c1 -8.67%
CCOC(=O)CCc1c(C)c2cc3c(c(C)c2oc1=O)OCN(CCc1ccccc1OC)C3 -23.9%
CCOc1ccc(CCNC(=O)c2ccc3nc(N4CCC(C)CC4)sc3c2)cc1OCC -0.784%
CCN(CCCNC(=O)CN1N=C(c2ccccc2)CCC1=O)c1cccc(C)c1 6.12%
CCC(C)n1c(=O)c2sccc2n2c(CCCC(=O)Nc3ccc(F)cc3)nnc12 (stereo not given) 4.07%
CSc1ncc(Cl)c(C(=O)Nc2c(C(=O)c3ccc(C)cc3)oc3ccccc23)n1 2.01%
Cc1ccc(NC(=O)NC(C)c2c(-n3cccc3)sc(C)c2C)c(C)c1 (stereo not given) 0.423%
Cc1ccc(SCC(=O)Nc2ccc(O)c(-c3nc4cc(C)ccc4o3)c2)cc1 -1.62%
COc1ccc(NC(=O)c2ccco2)cc1NC(=O)c1cccc(C)c1OC 1.38%
O=C(Nc1ccccc1)C1CCN(S(=O)(=O)c2ccc3c(c2)CCCN3C(=O)C2CCC2)CC1 -8.88%
COc1ccc(Cn2c(CCC(=O)Nc3cc(C)cc(C)c3)nc3cccnc32)cc1 1.66%
Cc1ccc2c(CN3CCN(c4ccc(Cl)cc4)CC3)cc(=O)oc2c1 0.861%
Cc1ccc(CNC(=O)CCCCCn2c(=O)c3sccc3n(CC(=O)C(C)(C)C)c2=O)cc1 2.83%
CCOc1cc(CNC(=O)CSc2n[nH]c(-c3ccccc3)n2)cc(OCC)c1OCC 0%
Cc1ccc(NC(=O)CSc2nc(=O)n(Cc3ccncc3)c3c2CCC3)cc1Cl -1.5%
COc1ccc(Nc2ncc(C(=O)Nc3cccc(OC)c3)c3ccccc23)cc1 0%
Cc1ccc(Cl)cc1N(C)C(=O)c1sc2nc3n(c(=O)c2c1C)CCCC3 2.95%
COC(=O)c1cc(NC2(c3ccccc3)C(=O)c3ccccc3C2=O)cc(C(=O)OC)c1 1.18%
O=C(NCC1(c2ccccc2)CCCC1)C(=O)Nc1cccc(C(F)(F)F)c1 -4.63%
COc1ccc2nc(NS(=O)(=O)c3ccc(C)cc3)c(Nc3cc(Cl)ccc3OC)nc2c1 -0.434%
CCOC(=O)Cn1c(=O)oc2cc(S(=O)(=O)NCc3ccc(F)cc3)ccc21 1.8%
Cc1ccc(Cl)cc1N1CCN(C(c2ccc(F)cc2)c2nnc(-c3ccccc3)o2)CC1 (stereo not given) -6.01%
COc1ccc(-c2cc(C(=O)N3CCN(c4ccccc4OC)CC3)c3cc(C(C)C)ccc3n2)cc1 -10.1%
COC(=O)c1sccc1S(=O)(=O)N1CCN(c2cccc(C)c2C)CC1 1.72%
O=C(CSc1n[nH]c(-c2ccccc2)n1)N1CCCCC1 4.06%
CCOc1ccc(CC(=O)NCCc2csc3nc(-c4ccccc4F)nn23)cc1 -14.8%
Cc1noc(/C=C/N(C)C)c1S(=O)(=O)N1CCCC(C(=O)Nc2cccc(F)c2)C1 (stereo not given) 1.04%
Cc1ccc(CNC(=O)c2nc(SCc3cccc(C)c3)ncc2Cl)cc1 1.7%
Cc1ccc(CNC(=O)c2cn(C)c3ccc(S(=O)(=O)N(C)C4CCCCC4)cc3c2=O)cc1 -2.94%
CCc1ccc(-n2nc3ccc(NC(=O)c4cc5ccccc5o4)cc3n2)cc1 -1.22%
CCOc1ccc(-c2cc3c(=O)n(Cc4nc(-c5cccc(OC)c5OC)oc4C)ccn3n2)cc1Cl -2.62%
CCC(=O)N1CCc2cc(S(=O)(=O)CCC(=O)N3CCN(c4cccc(C)c4)C(C)C3)ccc21 (stereo not given) -8.44%
CCN(Cc1ccc(OC)cc1)c1ccc(-c2nc(-c3ccncc3)no2)cc1[N+](=O)[O-] 2.36%
O=C(NCCc1ccccc1)c1ccc(Cn2c(SCc3ccc(F)cc3)nc3cccnc32)cc1 -2.98%
Cc1ccccc1Nc1c(-c2ccsc2)nc2c(C)cccn12 -18.1%
O=C(NCc1cccc(Cl)c1)c1cccn1-c1nnc(N2CCCC2)s1 -5.6%
Cc1cc(C)c(Cn2c3ccccc3c3cnn(CC(=O)NCCCc4ccccc4)c(=O)c32)c(C)c1 0.0411%
COc1ccc(OC)c(S(=O)(=O)N2Cc3ccccc3CC2C(=O)Nc2ccc(C(C)=O)cc2)c1 (stereo not given) -10.5%
Cc1ccc(CN(Cc2ccco2)c2cnc(S(C)(=O)=O)nc2C(=O)Nc2ccc(Br)cc2)o1 0.562%
COc1ccc(OC)c(CCNC(=O)CCn2c(=O)c3cccn3c3cccnc32)c1 2.49%
CCCCN(c1ccccc1)c1ncnc2c1cnn2-c1ccc(Cl)cc1 -0.155%
CC(C)Cn1c(=O)c2ccccc2n2c(-c3ccc(Br)cc3)nnc12 -19.1%
Cc1ccccc1NC(=O)Cn1c(=O)n(Cc2ccc3c(c2)OCO3)c(=O)c2oc3ccccc3c21 0.438%
Cc1cc(C)cc(C(=O)Nc2cc(C(F)(F)F)ccc2N2CCN(c3ccccc3)CC2)c1 -15.8%
Cc1ccc(-c2cn3cccc(C)c3n2)cc1NS(=O)(=O)c1ccccc1 -1.64%
Cc1cccc(N(CC(=O)NC(C)c2ccccc2)S(=O)(=O)c2ccccc2)c1C (stereo not given) 3.32%
Cc1ccc(-c2nn3c(C)nnc3c3ccccc23)cc1S(=O)(=O)NCCO -13.6%
CC(=O)Nc1ccc(S(=O)(=O)NCC2CCC(C(=O)NCCCOC(C)C)CC2)cc1 (stereo not given) 2.51%
CCOc1cc(C(=O)OCc2cc(=O)n3c(C)csc3n2)cc(OCC)c1OCC -6.03%
CCOC(=O)c1c(NC(=O)c2cc(-c3ccccc3)on2)sc2c1CCCC2 -9.56%
CC(C)Cn1c(=O)c2sccc2n2c(CCCC(=O)Nc3ccc(Cl)cc3)nnc12 0.377%
CS(=O)(=O)c1ncc(N(Cc2ccccc2)Cc2ccco2)c(C(=O)Nc2cccc(C(F)(F)F)c2)n1 0.381%
COc1cccc(-c2nc(SCc3cc(=O)c4cc(Cl)ccc4[nH]3)n[nH]2)c1 -5.04%
Cc1cc(C)c(NC(=O)CSc2nc(=O)n(Cc3ccco3)c3c2CCC3)c(C)c1 -5.7%
O=C(NCCc1ccc(Cl)cc1)c1ccc2nc(Cc3ccccc3)oc2c1 1.21%
CCc1ccc(CN(Cc2ccco2)C(=O)c2cc(-c3ccc(Cl)cc3)on2)cc1 -4.14%
Cc1cc2c(cc1S(=O)(=O)Nc1cccc(C(F)(F)F)c1)OCCN2C -2.69%
CCOc1ccc(-c2nonc2NC(=O)c2ccccc2C)cc1 -18.8%
COc1ccc2c(Sc3ccccc3)c(C(=O)NCCN(C)C)[nH]c2c1 0.444%
O=C(Cc1ccc(Cl)cc1)Nc1ccc2oc(-c3ccccc3)nc2c1 3.18%
CCN(CC)C(=O)c1sc2c(c1C)c(=O)n(-c1ccc(C)c(C)c1)c(=O)n2CC(=O)Nc1ccc(F)cc1 1.79%
CC(C)Oc1ccc(CNC(=O)Cc2ccc(NC(=O)N3CCSc4ncccc43)cc2)cc1 0%
Cc1ccc2c(c1)c(=O)c(S(=O)(=O)c1ccc(F)cc1)cn2CC(=O)Nc1ccc2c(c1)OCO2 -0.385%
Cc1ccc(Cl)cc1NC(=O)NC1COc2ccccc2C1 (stereo not given) -0.0612%
CCC(Cn1nnc2ccccc2c1=O)NC(=O)Nc1cc(Cl)ccc1OC (stereo not given) -3.89%
Cc1cccc(C2N3CC4(C(C)C)CN2CC(C(C)C)(C3)C4=O)c1 (stereo not given) -6.95%
Cn1c(=O)oc2cc(S(=O)(=O)NCCC(=O)Nc3ccc(F)c(Cl)c3)ccc21 -19%
